# Reference: PubChem BioAssay (NCATS)
# Several values for one entry are separate records, joined by “and”; a condition that tells them apart may be missing. Equal entries are not always repeated. Inconclusive results, whose numbers are uncertain, are shown with a selection of clear calls. For part of these data: A potency beside an inconclusive call is a rough fit, not a confirmed value. Activity calls are given as the source filed them. The call rests on the fitted dose curve; in most records, active means well fitted curve in the direction sought with a large enough effect; inconclusive means small, poorly fitted or top-dose-only effect, or another doubt; inactive means no such curve, though single readings can be large; an effect the other way counts as inactive or inconclusive.
# Key:
# [1] = P-glycoprotein substrates identified in KB-8-5-11 adenocarcinoma cell line, qHTS therapeutic library screen (AID 1346987); conditions: KB-8-5-11 (P-gp overexpressing) viability, CellTiter-Glo, 72 h; series mostly up to 44.5 µM; further: nearly all actives have a fitted effect of over 65% in size
# Outline: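 KB-8-5-11, a colchicine-selected P-gp-overexpressing KB-3-1 subline, was grown without colchicine for the assay. Cells were seeded at 500 cells/well, dosed in concentration-response and incubated 72 h at 37 degree C, 5% CO2. Viability was read by CellTiter-Glo luminescence.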
# [2] = tested on: Zika virus NS2B-NS3 protease (unlinked complex); test: Primary screen GU Rhodamine qHTS for Zika virus inhibitors: Unlinked NS2B-NS3 protease assay (AID 1347159); conditions: Recombinant ZIKV NS2B-NS3 protease, Rhodamine110 substrate fluorescence; series mostly up to 107 µM; further: nearly all actives have a fitted effect of over 60% in size
# Outline: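 A qHTS format was used, with compound concentrations ranging up to 114 microM. Each compound was preincubated with 25 nM NS2B-NS3 protease, and the substrate was then added at 1.5 microM. Curves were fitted with a 4-parameter Hill model.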
# [3] = Primary qHTS for inhibitors of nuclear receptor binding SET domain protein 2 (NSD2) in an isogenic RCH-ACV NSD2 p.E1099K mutant (9B) (AID 1645876); conditions: RCH-ACV NSD2 E1099K (9B) viability, CellTiter-Glo, 72 h; series mostly up to 44.9 µM; further: nearly all actives have a fitted effect of over 70% in size
# [4] = tested on: CRL-7250; test: Cytotoxic Profiling of Annotated Libraries Using Quantitative High-Throughput Screening (AID 1296008); conditions: Five cell lines viability, CellTiter-Glo ATP luminescence, 48-72 h; max response: stronger effect = lower value; further: nearly all actives have a fitted effect of over 60% in size
# Outline: (§1)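 Compounds were pin-transferred onto cells and incubated 48 or 72 hr at 37 degree Celsius, 95% humidity. CellTiter-Glo was added, plates sat 10 min at room temperature, then ATP-coupled luminescence was imaged as the viability read-out.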
# [5] = tested on: HaCat; test: as above; conditions: Five cell lines viability, CellTiter-Glo ATP luminescence, 48-72 h; max response: stronger effect = lower value
# Outline: as §1
# [6] = tested on: KB-3-1; test: as above; conditions: Five cell lines viability, CellTiter-Glo ATP luminescence, 48-72 h; max response: stronger effect = lower value
# Outline: as §1
# [7] = tested on: NIH3T3; test: as above; conditions: Five cell lines viability, CellTiter-Glo ATP luminescence, 48-72 h; max response: stronger effect = lower value
# Outline: as §1
# [8] = tested on: C33A; test: Primary qHTS to identify gynecologic anti-cancer compounds using libraries of approved drugs and bioactive compounds (AID 1345084); conditions: Gynecologic cancer cell panel viability, ATPlite luminescence, 48 h; series mostly up to 57.5 µM; further: nearly all actives have a fitted effect of over 55% in size; on activity change, negative = cytotoxicity: on the % scale 0 is the no-effect control and ±100 the full control effect
# Outline: (§2)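 Cells, 1,000 per well, plated 16 h, then exposed 48 h at 37 C to compounds. Viability by ATPlite luminescence after 15 min at room temperature.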
# [9] = tested on: CAOV3; test: as above; conditions: Gynecologic cancer cell panel viability, ATPlite luminescence, 48 h; activity change, negative = cytotoxicity: at 57.5 µM (top of the series)
# Outline: as §2
# [10] = tested on: CASKI; test: as above; conditions: Gynecologic cancer cell panel viability, ATPlite luminescence, 48 h; series mostly up to 57.5 µM
# Outline: as §2
# [11] = tested on: Es-2; test: as above; conditions: Gynecologic cancer cell panel viability, ATPlite luminescence, 48 h; series mostly up to 57.5 µM
# Outline: as §2
# [12] = tested on: PA-1; test: as above; conditions: Gynecologic cancer cell panel viability, ATPlite luminescence, 48 h; series mostly up to 57.5 µM
# Outline: as §2
# [13] = tested on: SKOV3; test: as above; conditions: Gynecologic cancer cell panel viability, ATPlite luminescence, 48 h; series mostly up to 57.5 µM
# Outline: as §2
# [14] = tested on: Tov-21-G; test: as above; conditions: Gynecologic cancer cell panel viability, ATPlite luminescence, 48 h; activity change, negative = cytotoxicity: at 57.5 µM (top of the series) unless noted
# Outline: as §2
# [15] = tested on: Tov112D; test: as above; conditions: Gynecologic cancer cell panel viability, ATPlite luminescence, 48 h; series mostly up to 57.5 µM
# Outline: as §2
# [16] = tested on: HeLa; test: as above; conditions: Gynecologic cancer cell panel viability, ATPlite luminescence, 48 h; activity change, negative = cytotoxicity: at 57.5 µM (top of the series)
# Outline: as §2
# [17] = tested on: Hek293T; test: as above; conditions: Gynecologic cancer cell panel viability, ATPlite luminescence, 48 h, control line for the selectivity index; activity change, negative = cytotoxicity: at 57.5 µM (top of the series) unless noted
# Outline: as §2
# [18] = tested on: JEG-3; test: as above; conditions: Gynecologic cancer cell panel viability, ATPlite luminescence, 48 h; series mostly up to 57.5 µM
# Outline: as §2
# [19] = tested on: OV90; test: as above; conditions: Gynecologic cancer cell panel viability, ATPlite luminescence, 48 h; series mostly up to 57.5 µM
# Outline: as §2
# [20] = Primary qHTS for inhibitors of nuclear receptor binding SET domain protein 2 (NSD2) in an RCH-ACV wild type WT cells (2C) (AID 1645877); conditions: RCH-ACV (leukaemia line) NSD2 WT (2C) viability, CellTiter-Glo, 72 h; activity change, negative = cell killing: at 44.9 µM (top of the series) unless noted; series mostly up to 44.9 µM; further: nearly all actives have a fitted effect of over 70% in size
# Potency means the concentration at half of the fitted maximal effect; tags describe the fitted curve by direction and shape.
structure (smiles),measurement,setting,value
CCN(CCCOc1ccc2c(Nc3cc(CC(=O)Nc4cccc(F)c4)[nH]n3)ncnc2c1)CCOP(=O)(O)O,Potency,[1],"inconclusive: 16.4 µM [inhibitor, single point]"
same,Potency,[2],"inconclusive: 44.7 µM [inhibitor, partial curve]"
same,Potency,[3],"inconclusive: 7.28 µM [inhibitor, partial curve, poor fit]"
same,Potency,[4],"inconclusive: 8.2 µM [inhibitor, partial curve]"
same,Potency,[5],active: 2.06 µM
same,Potency,[6],"inconclusive: 0.0259 µM [inhibitor, full curve, poor fit]"
same,Potency,[7],"inconclusive: 1.03 µM [inhibitor, full curve]"
same,Potency,[8],inactive
same,"activity change, negative = cytotoxicity",[9],inconclusive: -46.2%
same,Potency,[10],"inconclusive: 39.8 µM [cytotoxic, single point]"
same,Potency,[11],inactive
same,Potency,[12],"inconclusive: 39.8 µM [cytotoxic, single point]"
same,Potency,[13],active: 15.8 µM
same,Potency,[14],"inconclusive: 35.5 µM [cytotoxic, partial curve, poor fit]"
same,Potency,[15],"inconclusive: 12.6 µM [cytotoxic, partial curve, poor fit]"
COc1ccc(CC2C(=O)NC(C)C(=O)N(C)C3Cc4ccc(cc4)Oc4cc(ccc4OC4OC(CO)C(O)C(O)C4O)CC(C(=O)NC(C)C(=O)NC(C)C(=O)N2C)N(C)C3=O)cc1 (stereo not drawn),Potency,[2],inactive
same,Potency,[3],active: 0.0138 µM
same,Potency,[4],active: 0.0873 µM
same,Potency,[5],"inconclusive: 0.348 µM [inhibitor, full curve]"
same,Potency,[6],active: 0.138 µM
same,Potency,[7],"inconclusive: 0.0246 µM [inhibitor, full curve, poor fit]"
same,Potency,[8],"inconclusive: 0.251 µM [cytotoxic, full curve]"
same,Potency,[9],"inconclusive: 7.08 µM [cytotoxic, single point]"
same,Potency,[10],active: 0.631 µM
same,Potency,[16],active: 2 µM
same,Potency,[17],active: 158 nM
same,Potency,[18],"inconclusive: 10 µM [cytotoxic, single point]"
same,Potency,[19],"inconclusive: 0.447 µM [cytotoxic, partial curve, poor fit]"
same,Potency,[12],"inconclusive: 0.282 µM [cytotoxic, full curve, poor fit]"
same,Potency,[13],active: 1.41 µM
C=CC(=O)Nc1ccc2ncnc(Nc3cccc(Br)c3)c2c1,Potency,[2],active: 44.7 µM
same,Potency,[20],active: 4.17 µM
same,Potency,[4],active: 5.8 µM
same,Potency,[5],active: 0.0461 µM
same,Potency,[6],"inconclusive: 23.1 µM [inhibitor, single point]"
same,Potency,[7],"inconclusive: 11.6 µM [inhibitor, partial curve, poor fit]"
same,Potency,[8],"inconclusive: 3.98 µM [cytotoxic, partial curve, poor fit]"
same,Potency,[9],"inconclusive: 31.6 µM [cytotoxic, single point]"
same,Potency,[10],"inconclusive: 35.5 µM [cytotoxic, partial curve, poor fit]"
same,Potency,[11],"inconclusive: 31.6 µM [cytotoxic, single point]"
same,Potency,[18],"inconclusive: 39.8 µM [cytotoxic, single point]"
same,Potency,[12],"inconclusive: 25.1 µM [cytotoxic, single point]"
same,Potency,[13],"inconclusive: 31.6 µM [cytotoxic, single point]"
same,Potency,[14],active: 10 µM
same,Potency,[15],"inconclusive: 20 µM [cytotoxic, partial curve, poor fit]"
O=c1[nH]c(=O)n([C@H]2C[C@H](O)[C@@H](CO)O2)cc1F,Potency,[1],"inconclusive: 2.31 µM [inhibitor, full curve]"
same,Potency,[4],"inconclusive: 26.6 µM [inhibitor, partial curve, poor fit]"
same,Potency,[5],active: 0.0084 µM
same,Potency,[6],"inconclusive: 0.0291 µM [inhibitor, full curve, poor fit]"
same,Potency,[7],active: 0.006 µM
same,Potency,[8],"inconclusive: 4.47 µM [cytotoxic, partial curve]"
same,Potency,[9],active: 1.58 µM
same,Potency,[10],"inconclusive: 0.224 µM [cytotoxic, full curve, poor fit]"
same,Potency,[11],"inconclusive: 14.1 µM [cytotoxic, partial curve, poor fit]"
same,Potency,[16],active: 5.01 µM
same,Potency,[18],inconclusive: 2.82 µM
same,Potency,[19],active: 7.94 µM
same,Potency,[12],"inconclusive: 0.355 µM [cytotoxic, full curve]"
same,Potency,[13],active: 7.94 µM
same,Potency,[14],"inconclusive: 0.355 µM [cytotoxic, full curve, poor fit]"
same,Potency,[15],active: 1 µM
CC(C)c1cc(-c2n[nH]c(=O)n2-c2ccc3c(ccn3C)c2)c(O)cc1O,Potency,[1],"active: 93.5 nM and inconclusive: 23.1 nM [inhibitor, full curve]"
same,Potency,[3],active: 25.8 nM and active: 29.5 nM
same,Potency,[4],active: 148 nM and active: 103 nM
same,Potency,[5],"inconclusive: 0.0833 µM [inhibitor, full curve]"
same,Potency,[6],"inconclusive: 93.5 nM [inhibitor, full curve] and inconclusive: 36.6 nM [inhibitor, full curve]"
same,Potency,[7],active: 105 nM and active: 116 nM
same,Potency,[8],"inconclusive: 0.355 µM [cytotoxic, full curve, poor fit]"
same,Potency,[10],"inconclusive: 0.158 µM [cytotoxic, full curve, poor fit]"
same,Potency,[11],"inconclusive: 0.316 µM [cytotoxic, full curve, poor fit]"
same,Potency,[17],active: 316 nM
same,Potency,[19],active: 2.51 µM
same,Potency,[12],active: 0.251 µM
same,Potency,[13],"inconclusive: 0.1 µM [cytotoxic, full curve, poor fit]"
same,Potency,[15],"inconclusive: 0.282 µM [cytotoxic, full curve]"
CC(C)C(CO)Nc1nc(Nc2cc(N)cc(Cl)c2)c2ncn(C(C)C)c2n1 (stereo not drawn),Potency,[1],active: 7.31 µM
same,Potency,[4],"inconclusive: 25.9 µM [inhibitor, single point]"
same,Potency,[5],"inconclusive: 7.31 µM [inhibitor, partial curve, poor fit]"
same,Potency,[6],active: 10.3 µM
same,Potency,[7],active: 3.66 µM
same,Potency,[8],"inconclusive: 12.6 µM [cytotoxic, partial curve]"
same,Potency,[9],"inconclusive: 25.1 µM [cytotoxic, single point]"
same,Potency,[10],"inconclusive: 15.8 µM [cytotoxic, partial curve, poor fit]"
same,Potency,[11],"inconclusive: 39.8 µM [cytotoxic, single point]"
same,Potency,[16],active: 25.1 µM
same,Potency,[17],"inconclusive: 20000 nM [cytotoxic, single point]"
same,Potency,[18],"inconclusive: 28.2 µM [cytotoxic, partial curve, poor fit]"
same,Potency,[19],"inconclusive: 39.8 µM [cytotoxic, single point]"
same,Potency,[13],active: 28.2 µM
Cc1cc(-c2nc3cc(F)ccc3s2)ccc1NC(=O)[C@@H](N)CCCCN,Potency,[1],"inconclusive: 20.6 µM [inhibitor, single point]"
same,Potency,[3],active: 5.25 µM
same,Potency,[4],"inconclusive: 29.1 µM [inhibitor, single point]"
same,Potency,[5],"inconclusive: 20.6 µM [inhibitor, single point]"
same,Potency,[6],"inconclusive: 23.1 µM [inhibitor, single point]"
same,Potency,[7],"inconclusive: 25.9 µM [inhibitor, single point]"
same,Potency,[8],active: 17.8 µM
same,Potency,[9],active: 28.2 µM
same,Potency,[10],active: 14.1 µM
same,Potency,[11],active: 15.8 µM
same,Potency,[16],active: 14.1 µM
same,Potency,[18],active: 14.1 µM
same,Potency,[19],active: 8.91 µM
same,Potency,[12],active: 10 µM
same,Potency,[13],active: 11.2 µM
same,Potency,[14],active: 14.1 µM
same,Potency,[15],active: 15.8 µM
Oc1ccc(Cl)cc1Cc1cc(Cl)ccc1O,Potency,[1],"inconclusive: 29.1 µM [inhibitor, single point]"
same,Potency,[3],"inconclusive: 29.9 µM [inhibitor, single point]"
same,Potency,[20],active: 18.8 µM
same,Potency,[4],"inconclusive: 21.1 µM [inhibitor, single point]"
same,Potency,[5],"inconclusive: 29.9 µM [inhibitor, single point]"
same,Potency,[6],"inconclusive: 18.4 µM [inhibitor, single point]"
same,Potency,[7],"inconclusive: 23.7 µM [inhibitor, single point]"
same,Potency,[8],"inconclusive: 35.5 µM [cytotoxic, partial curve]"
same,Potency,[9],"inconclusive: 39.8 µM [cytotoxic, single point]"
same,Potency,[13],"inconclusive: 2 µM [rising, partial curve, poor fit]"
COC(=O)C1=C(C)NC(C)=C(C(=O)O[C@@H]2CCCN(Cc3ccccc3)C2)[C@@H]1c1cccc([N+](=O)[O-])c1,Potency,[1],"inconclusive: 23.1 µM [inhibitor, single point] and active: 20.6 µM"
same,Potency,[3],active: 21.1 µM and active: 25.8 µM
same,Potency,[20],"inconclusive: 21.1 µM [inhibitor, single point]"
same,Potency,[4],"inconclusive: 29.1 µM [inhibitor, single point]"
same,Potency,[5],"inconclusive: 20.6 µM [inhibitor, single point]"
same,Potency,[6],"inconclusive: 18.4 µM [inhibitor, single point]"
same,Potency,[13],inconclusive: 3.55 µM
